Assay results reported in PubChem BioAssay AID1347417 (National Center for Advancing Translational Sciences (NCATS), 2020).
The campaign covered roughly 120,000 compounds. About 5,300 (4.4%) were called active. The shares of active, inactive and inconclusive entries below differ from those in the screen. The call rests on the fitted dose curve; in most records, active means well fitted inhibition curve with a large enough effect; inconclusive means small, poorly fitted or top-dose-only effect; inactive means no such curve, though single readings can be large or run the other way. Potencies of inconclusive entries are doubtful fits and often do not repeat.

Test: qHTS Primary assay for Inhibitors of Plasmodium falciparum Dd2 growth in vitro; further: nearly all actives have a fitted effect of over 65% in size;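 on activity, negative = inhibition: plate controls were DMSO vehicle for no effect and reference drug for full effect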
Details: P. falciparum Dd2 growth, SYBR Green, 72 h; activity, negative = inhibition: at 28.9 µM (top of the series) unless noted; series mostly up to 28.9 µM
Method in brief: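 Readout: SYBR Green fluorescence, 485 nm excitation, 535 nm emission, after ~16 h lysis at 37C. Before that, Dd2-infected red cells (2.5% hematocrit) grew 72 h with compound, 29 uM top final concentration.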
Potency means the concentration at half of the fitted maximal effect; tags describe the fitted curve by direction and shape.

| SMILES | Potency | activity, negative = inhibition | outcome |
| --- | --- | --- | --- |
| COc1cccc(C(=O)Nc2c3c(nn2-c2ccc(C)cc2C)CS(=O)(=O)C3)c1OC | inconclusive: 8.91 µM [inhibitor, single point] |  |  |
| COc1ccc(-c2nc(-c3ccccc3)nc3c2CN(C(=O)c2ccccc2C)CC3)cc1 | active: 10 µM |  |  |
| CCOCCc1nn2c(=O)cc(COC(=O)c3ccccc3NC(=O)CC(C)C)nc2s1 | inconclusive: 17.8 µM [inhibitor, single point] |  |  |
| CCOc1ccc(-c2noc(CSc3nnc(Cc4ccccc4)n3-c3ccc(F)cc3)n2)cc1 | inconclusive: 17.8 µM [inhibitor, single point] |  |  |
| CC1=Nc2cc(C(=O)NC3CCCC3)ccc2Sc2ccc(Cl)cc21 | active: 11.2 µM |  |  |
| CCC(CC)c1cc([C@H]2CN3CC[C@H]2C[C@@H]3CNC(=O)Nc2ccc(OC)cc2)nc(-c2ccncc2)n1 | inconclusive: 2.82 µM [inhibitor, single point] |  |  |
| CCOC(=O)c1ccc(NC(=O)N2Cc3[nH]cnc3C[C@H]2c2nc(-c3ccc4c(c3)OCO4)no2)cc1 | inconclusive: 12.6 µM [inhibitor, partial curve, poor fit] |  |  |
| COc1cccc(CN2CCC(C(=O)N3CCCCCCNC(=O)CC3)CC2)c1 | inconclusive: 17.8 µM [inhibitor, single point] |  |  |
| O=C1OCC2(CCN(Cc3c[nH]c4ccccc34)C2)N1Cc1ccccc1 (stereo not given) | inconclusive: 2 µM [inhibitor, partial curve, poor fit] |  |  |
| CCCCCCc1cc2cc(-c3cn4c(n3)sc3cc(OC)ccc34)c(=O)oc2cc1O | inconclusive: 2.24 µM [inhibitor, full curve, poor fit] |  |  |
| CC(=O)Nc1ccc(CN(C)Cc2ccc(-c3ccccc3)cc2)cc1 | inconclusive: 12.6 µM [inhibitor, single point] |  |  |
| CCOC(=O)c1cc2c(=O)n3ccccc3nc2n(Cc2ccco2)c1=NC(=O)c1ccc(F)cc1 | inconclusive: 11.2 µM [inhibitor, single point] |  |  |
| CC(C)(O)c1cc(CC2(NCc3cnc4ccccc4c3)COC2)no1 |  | inactive: -22.8% [at 44.1 µM] |  |
| O[C@H]1CC[C@@H](Cc2cc(COc3ccccc3)on2)O[C@@H]1CNC1CCOCC1 | inconclusive: 1.41 µM [inhibitor, partial curve] |  |  |
| O=C1CCCc2[nH]c(=O)c(-c3nc(-c4cccc([N+](=O)[O-])c4)cs3)cc21 | inconclusive: 8.91 µM [inhibitor, single point] |  |  |
| Cc1ccc2c(c1)C(C)(c1ccccc1)CC(C)(C)N2C(=O)c1ccc(F)cc1 (stereo not given) | active: 5.62 µM |  |  |
| COc1ccc2[nH]c3c(c2c1)CCNC31CCN(C(=O)c2ccc(OC)c(F)c2)CC1 | inconclusive: 3.98 µM [inhibitor, single point] |  |  |
| O=C(Cc1cccnc1)N1CCC(N2CC(OCC3CC3)C23CCCCC3)CC1 (stereo not given) | active: 7.94 µM |  |  |
| CC(=O)Nc1ccc(OCC(=O)NC2CCN(Cc3ccccc3)CC2)nc1 | inconclusive: 17.8 µM [inhibitor, single point] |  |  |
| COC(=O)[C@@H]1Cc2ncn(C)c2CN1S(=O)(=O)c1ccc2ccccc2c1 | inconclusive: 20 µM [inhibitor, single point] |  |  |
| COc1ccc(OC2CCN(C(C)=O)CC2)c(C(=O)NCc2snnc2C)c1 | inconclusive: 17.8 µM [inhibitor, single point] |  |  |
| COc1ccc(Cl)cc1NC(=O)c1sc2nc3c(cc2c1N)CN(C)CC3 |  |  | inactive |

| SMILES | Potency | activity, negative = inhibition | outcome |
| --- | --- | --- | --- |
| CC1=C[C@@H](CN2CCC(C(N)=O)CC2)[C@H](C(C)C)C[C@H]1Cc1nnc(-c2cccnc2)o1 |  |  | inactive [at 44.1 µM] |
| CC1CCC2(CC1)NC(=O)N(CC(=O)Nc1cc(C(F)(F)F)ccc1Cl)C2=O (stereo not given) |  |  | inactive |
| O[C@H]1[C@H](NCc2ccccn2)[C@H]2CO[C@H](O2)[C@@H]1N1CCCC1 | inconclusive: 35.5 µM [inhibitor, single point] |  |  |
| CC(C)CNc1ccc2c(n1)C(C)(C(=O)NC1CCOCC1)CN(Cc1ccccc1)C2 (stereo not given) | inconclusive: 12.6 µM [inhibitor, partial curve, poor fit] |  |  |
| CCn1nc(C)c(C(=O)NC(C)c2cnc(-c3ccncc3)nc2C)c1C (stereo not given) |  | inactive: -15.1% |  |
| COc1ccc(-c2nc(N3CCOCC3)cc3c2CN(Cc2ccccc2)C3=O)cc1OC | inconclusive: 1.26 µM [inhibitor, partial curve, poor fit] |  |  |
| O=C(Nc1cccc(Cl)c1)c1cc(S(=O)(=O)N2CCC3(CC2)OCCO3)ccc1F | inconclusive: 17.8 µM [inhibitor, single point] |  |  |
| Cc1ccc(C)c(NC(=O)Cn2c(=O)c(-c3noc(C)n3)c3n(c2=O)CCCC3)c1 |  |  | inactive |
| COc1cc(OC)c(NC(=O)Cn2cnc3c(nc4n3CCCCC4)c2=O)cc1Cl | inconclusive: 17.8 µM [inhibitor, single point] |  |  |
| CCc1ccc(-n2c(=O)c3cccnc3n2CC(=O)Nc2ccccc2C(F)(F)F)cc1 | active: 11.2 µM |  |  |
| COc1ccc(-c2ccc(CCC(=O)O)n2CC(=O)Nc2cccc(C(F)(F)F)c2)cc1 | inconclusive: 17.8 µM [inhibitor, single point] |  |  |
| CCCNC(=O)C(NC(=O)c1ccc(OC)cc1)C1CCN(C(=O)c2ccccc2OC)CC1 (stereo not given) |  | inactive: -23.9% |  |
| COC1C(=O)N(C2CCN(C(=O)NCc3ccccc3)CC2)C12CCOCC2 (stereo not given) |  | inactive: -17.9% |  |
| COCCN1CCOC[C@H]2CCN(C(=O)CCC3CCCC3)C[C@H]21 |  | inactive: -4.98% |  |
| C#C[C@H]1CN2CC[C@H]1C[C@@H]2CNS(=O)(=O)c1ccc(NC(C)=O)cc1 |  | inactive: -6.05% [at 44.1 µM] |  |
| O=C1NC(=NC2CCCC2)C2(CCCN(Cc3ccc(F)cc3)C2)N1c1cc(F)cc(F)c1 (stereo not given) | active: 7.94 µM |  |  |
| CCCc1noc(-c2cn(C3CCN(C(=O)c4cccs4)CC3)nn2)n1 | inconclusive: 8.91 µM [inhibitor, single point] |  |  |
| COC(=O)c1cc(NS(=O)(=O)c2cc(Br)cc3c2N(C(C)=O)CC3)cc(C(=O)OC)c1 | inconclusive: 1.41 µM [inhibitor, partial curve, poor fit] |  |  |
| C[S+](=O)([O-])c1ccc(-c2nc(C(=O)NCc3ccc(F)cc3)n3ccccc23)cc1 | active: 11.2 µM |  |  |
| COc1ccccc1-c1nccc2c(=O)cc(C3=CCOCC3)oc12 |  | inactive: -9.98% [at 44.1 µM] |  |
| CC#CCn1cc2c3c(cccc31)[C@H](CC(C)C)N[C@H](C(=O)NC1CC1)C2 | inconclusive: 1.41 µM [inhibitor, partial curve, poor fit] |  |  |
| CCCc1nnc(N2C[C@H]3COc4ccccc4C[C@@]3(C(=O)O)C2)s1 |  | inactive: -11.8% |  |

| SMILES | Potency | activity, negative = inhibition | outcome |
| --- | --- | --- | --- |
| Cc1ccc(Cn2c(SCc3ccc(C(=O)NC4CCCC4)cc3)nc3ccncc32)cc1 | active: 11.2 µM |  |  |
| O=S(=O)(c1ccc(F)cc1)N1CCC2(CC1)CC(OCC1CC1)CCO2 (stereo not given) | inconclusive: 12.6 µM [inhibitor, single point] |  |  |
| CC(C)[C@H]1NC(=O)[C@@H]2[C@@H](NC(=O)NC3CCCCC3)CCN2C1=O | inconclusive: 2.82 µM [inhibitor, partial curve] |  |  |
| O=C(NCc1ccncc1)C1CN(S(=O)(=O)c2cccs2)CC12CCCCC2 (stereo not given) | inconclusive: 17.8 µM [inhibitor, single point] |  |  |
| COc1cccc2c1OCC(CNC(=O)CCc1cn3ccccc3n1)C2 (stereo not given) |  | inactive: 9.81% |  |
| COc1cc(-c2cc(OC)c3c(C)oc(C)c3c(=O)c2)ccc1OC(=O)c1ccccc1F | inconclusive: 8.91 µM [inhibitor, single point] |  |  |
| NCCCC(=O)N1Cc2ccccc2CC2(CCCN(CC3CCOCC3)C2)C1 (stereo not given) | inconclusive: 5.01 µM [inhibitor, partial curve, poor fit] |  |  |
| O=C(NCCN1CCc2ccccc2C1)c1cccc2c1CCN2C(=O)C1CC1 | inconclusive: 3.98 µM [inhibitor, single point] |  |  |
| OCCCc1nc2n(n1)C(c1cccc(Cl)c1)C=C(c1ccccc1)N2 (stereo not given) |  |  | inactive |
| CCOc1ccc(S(=O)(=O)N2CCC(C3CCN(C(C)=O)CC3)C2)cc1 (stereo not given) | inconclusive: 4.47 µM [inhibitor, partial curve, poor fit] |  |  |
| COCC1CN(C(=O)c2cccc(Br)c2)CC12CCNCC2 (stereo not given) |  |  | inactive |
| CCNC(=O)N1CC(c2noc(COc3ccc(OC)cc3)n2)C1 | inconclusive: 20 µM [inhibitor, single point] |  |  |
| O=C(c1cccs1)N1CCC(n2cc(-c3nc(-c4ccccc4)no3)nn2)CC1 | inconclusive: 1.78 µM [inhibitor, full curve] |  |  |
| O=C(Nc1ccc(Cl)cc1)c1cc2c(-c3ccccc3)nn(-c3ccccc3)c2s1 | active: 1.12 µM |  |  |
| Cn1c(=O)c2nc(SCC(=O)Nc3ccc(Cl)c(Cl)c3)n(C)c2n(C)c1=O | inconclusive: 0.0089 µM [inhibitor, full curve, poor fit] |  |  |
| Cc1ccc(CN(Cc2ccco2)c2cnc(S(C)(=O)=O)nc2C(=O)Nc2ccccc2Br)o1 | inconclusive: 14.1 µM [inhibitor, single point] |  |  |
| Cc1ccccc1CN1Cc2nc(N3CCCC3)ccc2OCC1=O | active: 10 µM |  |  |
| O=C1N(C2CCN(Cc3ccncc3)CC2)C(c2ccncc2)C12CCCCC2 (stereo not given) | inconclusive: 17.8 µM [inhibitor, single point] |  |  |
| COc1ccc(N(C)C(=O)c2cc(S(=O)(=O)N3CCc4ccccc43)cn2C)c(OC)c1 | inconclusive: 8.91 µM [inhibitor, single point] |  |  |
| CCc1ccc(-n2c(SCc3cccc(F)c3)nc3[nH]ncc3c2=O)cc1 | inconclusive: 11.2 µM [inhibitor, single point] |  |  |
| c1csc(CN2Cc3[nH]cnc3C[C@H]2c2nc(-c3ccncc3)no2)c1 |  |  | inactive [at 44.1 µM] |
